Test results taken from the supplement of paper PMC10126150.
Sequences with one replicate were seen in a single cluster, so their values are uncertain.

System: ATP
Test: switch fluorescence ratio, 500 uM ATP over buffer (Cy3 cluster intensity, sum of 5 cycles each) (fold (ratio)); higher = stronger signal-on switching upon ATP binding; sequences stand for … in TCGTCGGCAGCGTCAGATGTGTATAAGAGACAGTTTTTTTTTTTTTTTTTTTTTTTTT…TC
Details: aptamer strand: ATP DNA aptamer (quencher-CACCTGGGGGAGTATTGCGGAGGAAGG + anchor), 100 nM annealed; ATP concentration: 500 uM; one replicate
In short: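 Cy3-labelled switching-strand clusters on a modified Illumina MiSeq flow-cell were annealed to 100 nM quencher-labelled ATP aptamer and imaged first in selection buffer, then after 15 min with 500 uM ATP at 22 °C. NaOH stripping and re-annealing separated each of five buffer/ATP cycles, and clusters outside 100-1000 RFU were excluded. The fluorescence ratio sums target-cycle Cy3 intensity over buffer-cycle Cy3 intensity per cluster and averages it per switch-domain sequence.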
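Further: ATP exposure 15 min at 22 °C before imaging.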

Row | Sequence | switch fluorescence ratio
1 | GATGGCTTAG | 0.959
2 | CGTATCTTCT | 0.979
3 | CGAACATTAG | 1.03
4 | TGCGAACGAA | 1.12
5 | ACGGGCCTTT | 0.968
6 | GGATACGCCC | 1.34
7 | CGAAGAGATC | 0.952
8 | GGACGCGGTG | 1.05
9 | GGCCTGGAGC | 0.949
10 | TCCTGTAATT | 1.07
11 | AGATACTAGA | 1.01
12 | CAAGGGTCAG | 1.04
13 | TCCCCGGCTA | 2.05
14 | CGATTTGATA | 0.999
15 | ATCGGGGCTG | 1.03
16 | GGTGGAGATG | 0.979
17 | CAATGGGAGG | 0.954
18 | GACCAAGTAC | 1.78
19 | CATCACTTTT | 1.04
20 | CACTTATGCT | 0.988
21 | CGGCAAGTTA | 1.07
22 | CAGCTGGTGA | 0.988
23 | TGGGCCTCGC | 1
24 | AACGTATGAA | 1.09
25 | TTGAGTCTGT | 0.999
26 | CAGCGACACT | 1.34

Row | Sequence | switch fluorescence ratio
27 | CCCGATCAAG | 1.1
28 | TGAGGTCGTC | 0.994
29 | AGACTGCGGT | 1.01
30 | TTTAGTATCG | 0.978
31 | GGCTACAGCC | 0.978
32 | GTCGATCTCT | 1
33 | TCTTTTCAGG | 0.969
34 | CGGTGCGTAG | 1.03
35 | CGATGGTACT | 1.07
36 | GAAGGATTGC | 0.997
37 | GCGTACAGCG | 1
38 | TAATGTGCCG | 1
39 | GGCCTAGTCT | 1.19
40 | GTGGCAGAAG | 1.02
41 | TCGGCCAATC | 2.02
42 | AGCGGAAGTG | 1.02
43 | CATGACGGCC | 0.894
44 | TAGTGCCGTG | 1.09
45 | AAGCATGAAA | 0.994
46 | GCTAGGTATG | 1.01
47 | GTGTTTGGG | 0.981
48 | CTCTCGGTAC | 3.82
49 | GGCTAGGCGT | 1.02
50 | GTTTTGCATG | 1
51 | CTGACGCGTG | 1
52 | CTTTTGTTCC | 1.05

Row | Sequence | switch fluorescence ratio
53 | CGCTGCGCTA | 1.46
54 | TGGTTCATGG | 1.14
55 | CACTTATGGA | 0.98
56 | ATCAGGAGGT | 1.05
57 | GGGGGTCCAA | 1.01
58 | TCATAGTTAC | 1.06
59 | AAATCTGCCT | 1.25
60 | GGGTTGCAAT | 1.06
61 | CAGGATCAT | 0.983
62 | TATTGAGATT | 0.972
63 | AGTTGGGCC | 1.03
64 | GTTAGGGTCC | 0.968
65 | GAACAGGCGC | 1.04
66 | CCTTTCACGT | 1.1
67 | TGTGCGCAAG | 1.86
68 | ATCAATTAGC | 0.966
69 | GACAACGCGG | 1.06
70 | TCATTTTAAG | 0.956
71 | GCTGAAAGC | 1.01
72 | GGTGTATTTT | 0.986
73 | CGAGATTTTT | 0.948
74 | TTATGCTTGT | 1.04
75 | CCAAGTCAAT | 3.16
76 | GCCGGGGGCA | 1.01
77 | CAGTGACTTC | 1.03
78 | CTCACATGTG | 1.04

Row | Sequence | switch fluorescence ratio
79 | AGCAGGATGA | 0.974
80 | TGCTTGGT | 0.994
81 | CACGCGGTTT | 1.02
82 | CTTCATTGGC | 1.02
83 | TTGAACTCAC | 1.04
84 | GTACGCCTTT | 0.971
85 | TGGGCGTACG | 0.987
86 | TGCAGGCGTT | 1.02
87 | AAGGTAAGAA | 0.954
88 | TGGGAAAAGC | 1
89 | AAGGTCACTG | 0.999
90 | CCTAATGAGG | 0.996
91 | AGCGGAGGGT | 1.09
92 | GTTGATAGGT | 0.942
93 | CGTTAACGGA | 1.04
94 | ACCATGGCAA | 1.02
95 | AATCCCTATA | 1.02
96 | ACTGCTTCGA | 0.941
97 | ATGCAAGCGC | 0.979
98 | TTAGGGCCCC | 1.06
99 | GCGTCGTGGA | 1.05
100 | TTTAAGTGAA | 1.01
101 | TCCCGGATGA | 1.02
102 | ATATGCGGGA | 0.944
103 | CGTTGTGGCT | 1.09
104 | TAGAGTATTA | 0.965

Row | Sequence | switch fluorescence ratio
105 | AGCTCGTCTC | 0.971
106 | ACTCTGCG | 1.55
107 | GGTTCTAGCT | 0.964
108 | TCGACGGTGC | 1.98
109 | GTGTATTGCC | 1.01
110 | GCGGTTAGAC | 1.09
111 | CGTTGGCAGA | 1.04
112 | CTTCAAGCCC | 1.05
113 | TATGCAAAAG | 1.02
114 | TATCATCGCG | 0.973
115 | GCACACTCGA | 1.06
116 | TTGAAGTTTA | 1
117 | CACTTAGCCG | 0.992
118 | CGCGCAACGA | 1.06
119 | TTCTTAGATC | 0.988
120 | CGAGGGCAAG | 1.33
121 | TGTCCCAG | 1.02
122 | ATTGGTTAG | 0.976
123 | GGATAGTACG | 1.02
124 | GTGAGGG | 0.98
125 | ATAAAGGCGG | 0.964
126 | TTTTCATGAC | 1.04
127 | TATGTAGTTT | 1.03
128 | CCTGGTCACG | 0.982
129 | AAGCCCTGTG | 1.11
130 | GTGGGTGGCA | 0.978

Row | Sequence | switch fluorescence ratio
131 | GACTCTGCA | 4.04
132 | ATAAGGCCAG | 1.04
133 | GATGCTCTTG | 0.973
134 | CCTGGTCTCG | 0.994
135 | TGCTTACCAT | 1.02
136 | GTCCAAGAAA | 0.997
137 | GAGACGATTT | 1.04
138 | ATGGAGATC | 1.03
139 | GCCAGGTTCG | 1.01
140 | GTTATTCCGC | 1.35
141 | GAGGCAGGGC | 1.21
142 | GGAGTGATTG | 0.996
143 | GATTTTCATC | 0.991
144 | TCTACAACCG | 1.07
145 | GCACTAGCAA | 1.04
146 | GAGATAGGGC | 0.997
147 | CACCCGTTCA | 1.06
148 | TCGGGTCT | 0.983
149 | TAGTACTTGT | 0.966
150 | TCCTGGTTTC | 1.04
151 | CTTTTCCGGG | 1
152 | ACATTTGGCC | 1.02
153 | GAAACCCAGG | 3.54
154 | GCTATATCGT | 0.987
155 | TAATCCCGTG | 0.991
156 | CTGGCATTCA | 1.01

Row | Sequence | switch fluorescence ratio
157 | TTTGTACGAG | 0.993
158 | AGCTTGTGTT | 0.961
159 | AGGTATTCTG | 0.981
160 | TTCGGTTTCG | 0.983
161 | CCATTACGG | 1.04
162 | CTACCCTGTG | 1.24
163 | TGTCACTAAC | 1.14
164 | CGGATAGTCG | 1.16
165 | CCAATTGGTC | 1.06
166 | GTCAGTATGC | 0.995
167 | CGGGCCTCTG | 1.06
168 | CCACTGGGAT | 1.08
169 | TTTTCAGCCT | 1.07
170 | AAGTGCACCG | 1.02
171 | AGTGGTCTTT | 0.955
172 | TGAATTGGGT | 0.985
173 | TTAGTCCGAT | 0.988
174 | AGGTACGCGC | 1.03
175 | CATCACTTGA | 1.05
176 | TCAGGATACG | 1.03
177 | TATAACGAC | 1.01
178 | GGGTATTTA | 1.02
179 | CCGGGTACA | 1.08
180 | TTAGGTCCAT | 1.29
181 | CCCTGCCTAA | 1.14
182 | ATCTGCTCAA | 1.04

Row | Sequence | switch fluorescence ratio
183 | ATCCCTGCTC | 1.03
184 | CATCTAAATT | 1.04
185 | ATGTAGGTA | 0.989
186 | TCATCGCCCT | 1.08
187 | CCGACAGGCC | 1.62
188 | TCTTGAAGGA | 1.02
189 | ATTCCCGTAC | 1.31
190 | TTTCGCGTTT | 0.988
191 | CTTCAGACTA | 0.988
192 | TCAATTTTC | 1.02
193 | GAGGACAATT | 1.05
194 | CAATGACTTA | 1.05
195 | CGGCATTGGA | 0.964
196 | CTGGAAGGTA | 0.99
197 | GGGGCTGTTA | 0.941
198 | ATCTCCTTGT | 0.952
199 | AGGCTGGGCG | 0.988
200 | CAATAAGGGA | 1.03
201 | AAGCTTTCTG | 1.46
